# Data published in PubChem BioAssay AID463173 (ICCB-Longwood Screening Facility, Harvard Medical School, 2010).
# The whole screen tested about 52,000 compounds, of which about 1,700 (3.3%) were called active. No stated cut-off is given here; in the data, active means survival mostly below about 52% (no sharp cut-off); inactive means mostly above about 56%. Some of the results follow.
# System: Wild type
# Assay: growth inhibition of S. aureus wild type versus tarO mutant, primary screen, teichoic acid synthesis inhibitors, RN4220, OD600 (AID 463173)
# Details: S. aureus RN4220 wild type/DeltatarO growth, OD600, 18 h, active compounds read low, screened at 18.75 µg/mL (by protocol)
row,Compound,survival
1,COc1ccc(C)cc1NC(=O)Nc1ccccc1OCc1cc(=O)n2ccccc2n1,inactive: 73%
2,CCCCNC(=O)c1cnc2sc(N3CCCCCC3)nn2c1=O,inactive: 85%
3,CSc1nn(Cc2cccc(Cl)c2)c(N(C(C)=O)C(C)=O)c1S(=O)(=O)c1ccccc1,inactive: 62%
4,COc1ccc2c(c1)c1c(c(=O)n(-c3ccccc3)c(=O)n1CC(=O)NCc1ccc(C)cc1)n2C,inactive: 70%
5,O=C(CSc1nnc(COc2ccccc2)o1)N1CCCC1,inactive: 106%
6,CC(C)COC(=O)c1nnsc1NC(=O)Nc1ccccc1,inactive: 96%
7,COc1ccc(C2C(=O)N(C3CCC(C)CC3)CC(=O)N2C2CCCC2)cc1OC (stereo unspecified),active: -4%
8,COc1ccc(CC(=O)N(Cc2nc(-c3ccc(C)cc3)no2)C(C)C)cc1,inactive: 33%
9,O=C(CSc1nc2nccnc2c(=O)n1CCc1c[nH]c2ccccc12)Nc1ccc(F)cc1,inactive: 42%
10,CN(C)c1ccc(C(CNS(=O)(=O)c2ccc(F)cc2)N2CCOCC2)cc1 (stereo unspecified),inactive: 83%
11,CC(C)CNC(=O)c1cccc(NC(=O)C(C)C)c1,inactive: 94%
12,COc1ccc(-n2cc(C(=O)OCc3ccc(Cl)cc3)c3ccccc3c2=O)cc1,inactive: 143%
13,Cc1sc(-n2c(C)cc(/C=C(\C#N)C(=O)NCc3ccco3)c2C)c(C#N)c1C,inactive: 118%
14,O=C(O)CC1CCS(=O)(=O)C1 (stereo unspecified),inactive: 103%
15,COc1ccc(NC(=O)C2CCN(S(=O)(=O)c3ccc4c(c3)CCCC(=O)N4)CC2)c(OC)c1,inactive: 111%
16,CCOc1ccc(Nc2sc(C(=O)c3cccc(OC)c3)c(N)c2S(=O)(=O)c2ccccc2)cc1,inactive: 77%
17,CCC(C(=O)Nc1ccc(C(=O)OC)cc1)n1nc(-c2ccc(C)c(C)c2)ccc1=O (stereo unspecified),inactive: 102%
18,Cc1c(C(=O)OC2CCCCCC2)[nH]c2c1C(=O)CC(c1ccc(N(C)C)cc1)C2 (stereo unspecified),inactive: 123%
19,COc1cc(OC)cc(C(=O)Nc2cc(-c3nc4cccnc4s3)ccc2C)c1,inactive: 91%

row,Compound,survival
1,CCOc1ccc(CNC(=O)Cn2ccc3cc(S(=O)(=O)N4CCCCC4)ccc32)cc1,inactive: 80%
2,Cc1ccc(NC(=O)CSc2ccc(-c3ccccn3)nn2)cc1F,inactive: 85%
3,COc1ccc(S(=O)(=O)N(CC(=O)NCCSCc2ccccc2)c2ccc(C)cc2)cc1,inactive: 68%
4,Cn1c(=O)c(=O)n(C)c2cc(S(=O)(=O)N3CCCC3C(=O)Nc3ccc(F)cc3)ccc21 (stereo unspecified),inactive: 82%
5,O=C(c1ccccc1Br)N1CCC(c2nc3ccccc3o2)CC1,inactive: 77%
6,Cc1ccc(Cn2c(=O)n(-c3cc(C)cc(C)c3)c(=O)c3oc4ccccc4c32)cc1,inactive: 77%
7,COc1ccc(S(=O)(=O)N(Cc2nc(-c3ccc(Cl)cc3)no2)C2CCCCC2)cc1,inactive: 111%
8,Cc1ccc(S(=O)(=O)NCc2ccc(C(=O)NCCc3cccc(C)c3)cc2)cc1,inactive: 91%
9,N#Cc1c(C(F)(F)F)cc(-c2cccs2)nc1SCC(=O)Nc1cccc(C(F)(F)F)c1,inactive: 67%
10,Cc1oc(C)c2c(=O)cc(-c3ccc4c(c3)OCO4)cc(OC(=O)c3cccc(Cl)c3)c12,inactive: 115%
11,CCC1(c2csc(Nc3ccccc3C)n2)CCC(=O)O1 (stereo unspecified),inactive: 112%
12,O=S(=O)(c1ccc(-n2cnnn2)cc1)N1CCN(c2cccc(C(F)(F)F)c2)CC1,inactive: 98%
13,COc1cc(Cl)c(C)cc1NC(=O)c1sc2nc(C)cc(C)c2c1N,inactive: 85%
14,Cc1ccsc1CN(C(=O)COc1cccc(C)c1C)C1CCS(=O)(=O)C1 (stereo unspecified),inactive: 90%
15,COc1cc(C(=O)N(Cc2cccnc2)c2nc3cc(C)c(C)cc3s2)cc(OC)c1OC,inactive: 22%
16,CCOC(=O)COc1ccc(F)cc1C(=O)c1ccn2nc(-c3ccc(C)cc3)cc2n1,inactive: 76%
17,CN1C(=O)C(C)(C)c2cc(S(=O)(=O)N3CCCC3C(=O)Nc3ccc(F)cc3)ccc21 (stereo unspecified),inactive: 81%
18,COc1ccccc1NC(=O)C(Cc1ccccc1)NS(=O)(=O)c1cccc2nsnc12 (stereo unspecified),inactive: 78%
19,Cc1cc2cc3c(cc2nc1SCC(=O)OC(C)C)OCO3,inactive: 106%

row,Compound,survival
1,COc1ccc(OC)c(NC(=O)CSc2nc3ccccc3c(=O)n2CCC(=O)NC2CCCCC2)c1,inactive: 78%
2,O=C(Cn1c(SCC(=O)Nc2ccc(F)cc2)nc2ccccc21)NCc1ccccc1Cl,inactive: 75%
3,CCCCOC(=O)c1cccc(NC(=O)/C=C/c2ccccc2Cl)c1,active: 7%
4,COC(=O)c1ccc(Cl)cc1NC(=O)N(Cc1ccc(OC)cc1)C1CCN(C(C)=O)CC1,active: -6%
5,CC(=O)Nc1n[nH]c(-c2ccc(C)cc2)n1,inactive: 104%
6,O=C(CCC1N=C2c3ccccc3N=C(SCC(=O)Nc3ccc(F)cc3)N2C1=O)NCc1cccs1 (stereo unspecified),inactive: 68%
7,Cc1cccc(NC(=O)c2ccc(CNS(=O)(=O)c3ccc4c(c3)C(C)(C)C(=O)N4C)cc2)c1,inactive: 91%
8,Cc1ccccc1C(=O)N(Cc1ccc(N(C)C)cc1)CC1CCCO1 (stereo unspecified),inactive: 85%
9,Cc1ccc(N2CCN(C(=O)NCc3noc4ccc(C)cc34)CC2)c(C)c1,inactive: 53%
10,O=C(NCCOCCn1c(=O)oc2ccccc21)Nc1cccc(Cl)c1,inactive: 79%
11,COc1ccccc1NC(=O)CSC1=Nc2ccccc2C2=NC(CC(=O)NCc3ccc4c(c3)OCO4)C(=O)N12 (stereo unspecified),inactive: 120%
12,COC(=O)c1ccc(C(=O)OC)c(NC(C)=O)c1,inactive: 103%
13,CCOC(=O)c1noc2ncnc(NCc3ccccc3OC)c12,inactive: 72%
14,COc1ccccc1N=C1SC(C(=O)Nc2ccccc2OC)CC(=O)N1C (stereo unspecified),inactive: 73%
15,Cc1ccc(CNC(=O)c2sc3nc4n(c(=O)c3c2C)CCCCC4)cc1,inactive: 79%
16,COC(=O)c1ccccc1NC(=O)C1CCCN(c2ncnc3onc(C)c23)C1 (stereo unspecified),inactive: 77%
17,CC(C)c1ccc(NC(=O)c2ccc3c(O)c(S(=O)(=O)c4ccccc4)c(=O)[nH]c3c2)cc1,inactive: 83%
18,CNC(=O)c1c(-c2ccccc2)oc2ccc(OC)cc12,inactive: 102%
